Measured values from PubChem BioAssay (NCI).
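Protocol summary: plate cells (96-well), add compound at 5 concentrations, incubate 48 h, interpolate endpoints linearly. GI50 = concentration required for 50% inhibition of growth.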 Not every entry of the source has a single result; some have several. Only these are listed. The source may hold further records. The tests behind the records often covered other concentration ranges, which the source does not state; a value can be the end of its range.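 TGI: total growth inhibition.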

Key:
Assay in all cases: NCI-60 cell line screen, 48 h
A549 NSCLC = system: A549 NSCLC
TK-10 renal = system: TK-10 renal
SW-620 colon = system: SW-620 colon
LOX IMVI melanoma = system: LOX IMVI melanoma
M19-MEL melanoma = system: M19-MEL melanoma
HL-60(TB) leukemia = system: HL-60(TB) leukemia
KM12 colon = system: KM12 colon
OVCAR-8 ovarian = system: OVCAR-8 ovarian
MCF7 breast = system: MCF7 breast
A498 renal = system: A498 renal
KM20L2 colon = system: KM20L2 colon
NCI-H522 lung = system: NCI-H522 lung
SK-MEL-28 melanoma = system: SK-MEL-28 melanoma
IGROV1 ovarian = system: IGROV1 ovarian
HOP-62 NSCLC = system: HOP-62 NSCLC
U251 CNS = system: U251 CNS
HCT-15 colon = system: HCT-15 colon
MOLT-4 leukemia = system: MOLT-4 leukemia
CCRF-CEM leukemia = system: CCRF-CEM leukemia
HT29 colon = system: HT29 colon
DU-145 prostate = system: DU-145 prostate
RPMI-8226 leukemia = system: RPMI-8226 leukemia
K-562 leukemia = system: K-562 leukemia
NCI-H23 lung = system: NCI-H23 lung

Structure (SMILES): CC1OC(O[C@@H]2C=C3CC[C@@H]4[C@H](CC[C@]5(C)[C@@H](c6ccc(=O)oc6)CC[C@]45O)[C@@]3(C)CC2)C(O)C(O)C1O (some centres undefined)
- TGI (A549 NSCLC): 0.0224 nM [1 test] and 1.76 nM [mean of 2 tests]
- GI50 (TK-10 renal): 3.73 nM and 0.0198 nM
- TGI (SW-620 colon): 3 nM, 15.1 nM, 30.3 nM
- TGI (LOX IMVI melanoma): 3 nM, 0.697 nM, 300 nM
- TGI (M19-MEL melanoma): 3 nM and 40.4 nM
- TGI (HL-60(TB) leukemia): 0.0295 nM [1 test] and 2.07 nM [mean of 2 tests]
- TGI (KM12 colon): 3 nM and 30.7 nM
- TGI (OVCAR-8 ovarian): 3 nM, 12.5 nM, 35.8 nM
- TGI (MCF7 breast): 3 nM, 32 nM, 32.2 nM
- TGI (A498 renal): 3 nM and 33.4 nM
- TGI (KM20L2 colon): 3 nM and 32.4 nM
- TGI (NCI-H522 lung): 6.65 nM, 0.448 nM [1 test] and 3 nM [mean of 2 tests]
- TGI (SK-MEL-28 melanoma): 3 nM and 106 nM
- TGI (IGROV1 ovarian): 3 nM, 17.5 nM, 67.2 nM
- TGI (HOP-62 NSCLC): 0.179 nM [1 test] and 3 nM [mean of 2 tests]
- TGI (U251 CNS): 3 nM, 11.9 nM, 32.2 nM
- TGI (HCT-15 colon): 3 nM, 16.4 nM, 64.3 nM
- GI50 (MOLT-4 leukemia): 4.15 nM [1 test] and 0.365 nM [mean of 2 tests]
- TGI (CCRF-CEM leukemia): 3 nM and 30.1 nM
- TGI (HT29 colon): 3 nM and 300 nM
- GI50 (DU-145 prostate): 4.83 nM and 0.0298 nM
- TGI (RPMI-8226 leukemia): 3 nM, 1.98 nM, 31.4 nM
- TGI (K-562 leukemia): 3 nM, 0.579 nM, 97.8 nM
- TGI (NCI-H23 lung): 38.7 nM [1 test] and 2.61 nM [mean of 2 tests]
